Experimental data published in the antibiotic and cytotoxicity screens of Wong et al. (2023).
The list shows a part of the results.

Tests used:
HSkMC = human skeletal muscle cells; test: cytotoxicity call (relative viability < 0.9); conditions: 10 µM
HepG2 = test: cytotoxicity call (relative viability < 0.9); conditions: 10 µM
S. aureus RN4220 = test: growth inhibition call (relative growth <= 0.2); conditions: 50 µM

| Structure (SMILES) | cytotoxicity call (HSkMC) | cytotoxicity call (HepG2) | growth inhibition call (S. aureus RN4220) |
| --- | --- | --- | --- |
| CCS(=O)(=O)Nc1ccc2c(c1)C(=O)N(C)[C@H]1CC[C@H](CC(=O)NCCOC)O[C@H]1CO2 | inactive | inactive | inactive |
| C#CCn1c(=O)c2c(OC)ccnc2n(C)c1=O | inactive | inactive | inactive |
| C[C@H](CO)N1C[C@H](C)[C@H](CN(C)Cc2ccc(C(F)(F)F)cc2)Oc2ccc(NC(=O)C3CCCCC3)cc2C1=O | inactive | inactive | inactive |
| C[C@H]1CN([C@@H](C)CO)C(=O)c2cccc(NC(=O)c3cnccn3)c2O[C@H]1CN(C)S(=O)(=O)c1cccs1 | inactive | inactive | inactive |
| C[C@@H]1CN([C@@H](C)CO)C(=O)Cc2cc(NC(=O)C3CC3)ccc2O[C@H]1CN(C)Cc1ccc2c(c1)OCO2 | inactive | inactive | inactive |
| C[C@@H]1CN([C@H](C)CO)C(=O)Cc2cc(NC(=O)Nc3cccc4ccccc34)ccc2O[C@H]1CN(C)C(=O)Nc1cccc2ccccc12 | inactive | inactive | inactive |
| CC(C)NC(=O)N(C)C[C@H]1Oc2ccc(NC(=O)CCCN(C)C)cc2C(=O)N([C@@H](C)CO)C[C@H]1C | inactive | inactive | inactive |
| C[C@@H]1CCCCO[C@@H](CN(C)C(=O)Nc2ccc3c(c2)OCO3)[C@H](C)CN([C@@H](C)CO)C(=O)c2cc(NC(=O)Nc3ccc4c(c3)OCO4)ccc2O1 | inactive | inactive | inactive |
| C[C@@H]1CN([C@@H](C)CO)C(=O)c2cc(NS(=O)(=O)c3cn(C)cn3)ccc2O[C@H]1CN(C)Cc1ccc(C(=O)Nc2ccccc2N)cc1 | inactive | inactive | inactive |
| C[C@H]1CN([C@@H](C)CO)C(=O)c2cc(NC(=O)Nc3ccc(C(F)(F)F)cc3)ccc2O[C@@H]1CN(C)Cc1ccc(C(F)(F)F)cc1 | active | active | inactive |
| Cc1ccc(S(=O)(=O)N(C)C[C@@H]2Oc3ccc(NC(=O)CCN4CCOCC4)cc3C(=O)N([C@@H](C)CO)C[C@@H]2C)cc1 | inactive | inactive | inactive |
| C[C@@H]1CCCCO[C@H](CN(C)CC2CCCCC2)[C@@H](C)CN([C@H](C)CO)C(=O)c2cc(NC(=O)Nc3cccc4ccccc34)ccc2O1 | active | active | inactive |
| CN1CCN(C(c2ccccc2)c2ccccc2)CC1 | inactive | inactive | inactive |
| C[C@@H]1CCCCO[C@H](CN(C)S(=O)(=O)c2cccs2)[C@H](C)CN([C@@H](C)CO)C(=O)c2cc(NC(=O)Nc3ccc4c(c3)OCO4)ccc2O1 | inactive | inactive | inactive |
| C[C@H]1CN([C@@H](C)CO)C(=O)Cc2cc(NS(C)(=O)=O)ccc2O[C@@H]1CN(C)C(=O)Nc1ccc(F)cc1 | inactive | inactive | inactive |
| C[C@@H]1CN([C@@H](C)CO)C(=O)c2cc(NS(=O)(=O)c3ccccc3)ccc2O[C@@H]1CN(C)S(C)(=O)=O | inactive | inactive | inactive |
| C[C@@H]1CCCCO[C@@H](CN(C)Cc2ccc(Cl)c(Cl)c2)[C@H](C)CN([C@H](C)CO)C(=O)c2cc(NS(=O)(=O)c3cccs3)ccc2O1 | inactive | inactive | inactive |
| COc1ccc(S(=O)(=O)Nc2ccc3c(c2)C(=O)N([C@H](C)CO)C[C@H](C)[C@H](CN(C)S(C)(=O)=O)OCCCC[C@@H](C)O3)cc1 | inactive | inactive | inactive |
| C[C@H](CO)N1C[C@H](C)[C@@H](CN(C)C(=O)Cc2ccccc2)OCCCC[C@H](C)Oc2ccc(NC(=O)C3CCCCC3)cc2C1=O | inactive | inactive | inactive |
| C[C@H](CO)N1C[C@H](C)[C@@H](CN(C)C(=O)Cc2cccnc2)Oc2ncc(C#Cc3ccccc3F)cc2C1=O | inactive | inactive | inactive |
| C[C@@H]1CN([C@@H](C)CO)C(=O)CCCn2nncc2CO[C@@H]1CN(C)S(=O)(=O)c1ccc(Cl)cc1 | inactive | inactive | inactive |
| Cc1noc(C)c1S(=O)(=O)Nc1ccc2c(c1)C(=O)N([C@H](C)CO)C[C@H](C)[C@@H](CN(C)C)OCCCC[C@@H](C)O2 | inactive | inactive | inactive |
| O=C(C[C@@H]1C=C[C@H](NC(=O)Cc2ccccn2)[C@@H](CO)O1)NCCCN1CCOCC1 | inactive | inactive | inactive |
| COc1ccc(S(=O)(=O)Nc2ccc3c(c2)C(=O)N([C@@H](C)CO)C[C@@H](C)[C@@H](CN(C)Cc2ccc(-c4ccccc4)cc2)O3)cc1 | active | active | inactive |
